Test results as given in PubChem BioAssay (NCI).
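Protocol summary: plate cells (96-well), add compound at 5 concentrations, incubate 48 h, interpolate endpoints linearly. TGI: concentration producing complete growth inhibition.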

Assays:
Assay in all cases: inhibition of tumour cell growth, NCI panel, 48 h
MCF7 breast = test system: MCF7 breast
NCI/ADR-RES ovarian = test system: NCI/ADR-RES ovarian
786-0 renal = test system: 786-0 renal
HS 578T breast = test system: HS 578T breast
MDA-MB-435 = test system: MDA-MB-435
SW-620 colon = test system: SW-620 colon
HOP-62 NSCLC = test system: HOP-62 NSCLC
SK-MEL-5 melanoma = test system: SK-MEL-5 melanoma
SNB-75 CNS = test system: SNB-75 CNS
OVCAR-3 ovarian = test system: OVCAR-3 ovarian
NCI-H226 lung = test system: NCI-H226 lung
UACC-257 melanoma = test system: UACC-257 melanoma
OVCAR-8 ovarian = test system: OVCAR-8 ovarian
KM12 colon = test system: KM12 colon
NCI-H23 lung = test system: NCI-H23 lung
SF-268 CNS = test system: SF-268 CNS
CAKI-1 renal = test system: CAKI-1 renal
HT29 colon = test system: HT29 colon
SK-MEL-2 melanoma = test system: SK-MEL-2 melanoma
HL-60(TB) leukemia = test system: HL-60(TB) leukemia
RPMI-8226 leukemia = test system: RPMI-8226 leukemia
U251 CNS = test system: U251 CNS
SR leukemia = test system: SR leukemia
RXF 393 renal = test system: RXF 393 renal
SK-MEL-28 melanoma = test system: SK-MEL-28 melanoma
SF-295 CNS = test system: SF-295 CNS
SN12C renal = test system: SN12C renal
UACC-62 melanoma = test system: UACC-62 melanoma
SK-OV-3 ovarian = test system: SK-OV-3 ovarian
HCT-116 colon = test system: HCT-116 colon
EKVX NSCLC = test system: EKVX NSCLC
IGROV1 ovarian = test system: IGROV1 ovarian
MDA-N = test system: MDA-N
COLO 205 colon = test system: COLO 205 colon
OVCAR-4 ovarian = test system: OVCAR-4 ovarian
LOX IMVI melanoma = test system: LOX IMVI melanoma
ACHN renal = test system: ACHN renal
MOLT-4 leukemia = test system: MOLT-4 leukemia
BT-549 breast = test system: BT-549 breast
CCRF-CEM leukemia = test system: CCRF-CEM leukemia
TK-10 renal = test system: TK-10 renal
DU-145 prostate = test system: DU-145 prostate
SNB-19 CNS = test system: SNB-19 CNS
NCI-H522 lung = test system: NCI-H522 lung
A549 NSCLC = test system: A549 NSCLC
T-47D breast = test system: T-47D breast
A498 renal = test system: A498 renal
MDA-MB-231 breast = test system: MDA-MB-231 breast
M14 melanoma = test system: M14 melanoma
PC-3 prostate = test system: PC-3 prostate
OVCAR-5 ovarian = test system: OVCAR-5 ovarian
HCT-15 colon = test system: HCT-15 colon
MALME-3M melanoma = test system: MALME-3M melanoma
K-562 leukemia = test system: K-562 leukemia
UO-31 renal = test system: UO-31 renal

## CN1C2CCC1CC(OC(=O)C(O)c1ccccc1)C2 (stereo not given)
MCF7 breast
  TGI: > 100 µM
NCI/ADR-RES ovarian
  TGI: > 100 µM
786-0 renal
  TGI: > 100 µM
HS 578T breast
  TGI: > 100 µM
MDA-MB-435
  TGI: > 100 µM
SW-620 colon
  TGI: > 100 µM
HOP-62 NSCLC
  TGI: > 100 µM
SK-MEL-5 melanoma
  TGI: > 100 µM
SNB-75 CNS
  TGI: > 100 µM
OVCAR-3 ovarian
  TGI: > 100 µM
NCI-H226 lung
  TGI: > 100 µM
UACC-257 melanoma
  TGI: > 100 µM
OVCAR-8 ovarian
  TGI: > 100 µM
KM12 colon
  TGI: > 100 µM
NCI-H23 lung
  TGI: > 100 µM
SF-268 CNS
  TGI: > 100 µM
CAKI-1 renal
  TGI: > 100 µM
HT29 colon
  TGI: > 100 µM
SK-MEL-2 melanoma
  TGI: > 100 µM
HL-60(TB) leukemia
  TGI: > 100 µM
RPMI-8226 leukemia
  TGI: 89.1 µM
U251 CNS
  TGI: > 100 µM
SR leukemia
  TGI: > 100 µM
RXF 393 renal
  TGI: > 100 µM
SK-MEL-28 melanoma
  TGI: > 100 µM
SF-295 CNS
  TGI: > 100 µM
SN12C renal
  TGI: > 100 µM
UACC-62 melanoma
  TGI: > 100 µM
SK-OV-3 ovarian
  TGI: > 100 µM
HCT-116 colon
  TGI: > 100 µM
EKVX NSCLC
  TGI: > 100 µM
IGROV1 ovarian
  TGI: > 100 µM
MDA-N
  TGI: > 100 µM
COLO 205 colon
  TGI: > 100 µM
OVCAR-4 ovarian
  TGI: > 100 µM
LOX IMVI melanoma
  TGI: > 100 µM
ACHN renal
  TGI: > 100 µM
MOLT-4 leukemia
  TGI: > 100 µM
BT-549 breast
  TGI: > 100 µM
CCRF-CEM leukemia
  TGI: > 100 µM
TK-10 renal
  TGI: > 100 µM
DU-145 prostate
  TGI: > 100 µM
SNB-19 CNS
  TGI: > 100 µM
NCI-H522 lung
  TGI: > 100 µM
A549 NSCLC
  TGI: > 100 µM
T-47D breast
  TGI: > 100 µM
A498 renal
  TGI: > 100 µM
MDA-MB-231 breast
  TGI: > 100 µM
M14 melanoma
  TGI: > 100 µM
PC-3 prostate
  TGI: > 100 µM
OVCAR-5 ovarian
  TGI: > 100 µM
HCT-15 colon
  TGI: > 100 µM
MALME-3M melanoma
  TGI: > 100 µM
K-562 leukemia
  TGI: > 100 µM
UO-31 renal
  TGI: > 100 µM
